{"source": "paper PMC1793994", "binders": {"B1": {"name": "EHD2-GFP, Q9NZN4 1-543 (protein)", "chain": "MFSWLKRGGARGQQPEAIRTVTSALKELYRTKLLPLEEHYRFGAFHSPALEDADFDGKPMVLVAGQYSTGKTSFIQYLLEQEVPGSRVGPEPTTDCFVAVMHGDTEGTVPGNALVVDPDKPFRKLNPFGNTFLNRFMCAQLPNQVLESISIIDTPGILSGAKQRVSRGYDFPAVLRWFAERVDLIILLFDAHKLEISDEFSEAIGALRGHEDKIRVVLNKADMVETQQLMRVYGALMWALGKVVGTPEVLRVYIGSFWSQPLLVPDNRRLFELEEQDLFRDIQGLPRHAALRKLNDLVKRARLVRVHAYIISYLKKEMPSVFGKENKKKQLILKLPVIFAKIQLEHHISPGDFPDCQKMQELLMAHDFTKFHSLKPKLLEALDEMLTHDIAKLMPLLRQEELESTEVGVQGGAFEGTHMGPFVERGPDEAMEDGEEGSDDEAEWVVTKDKSKYDEIFYNLAPADGKLSGSKAKTWMVGTKLPNSVLGRIWKLSDVDRDGMLDDEEFALASHLIEAKLEGHGLPANLPRRLVPPSKRRHKGSAE"}, "B2": {"name": "EHD1-GFP, Q9H4M9 1-534 (protein)", "chain": "MFSWVSKDARRKKEPELFQTVAEGLRQLYAQKLLPLEEHYRFHEFHSPALEDADFDNKPMVLLVGQYSTGKTTFIRHLIEQDFPGMRIGPEPTTDSFIAVMHGPTEGVVPGNALVVDPRRPFRKLNAFGNAFLNRFMCAQLPNPVLDSISIIDTPGILSGEKQRISRGYDFAAVLEWFAERVDRIILLFDAHKLDISDEFSEVIKALKNHEDKIRVVLNKADQIETQQLMRVYGALMWSLGKIINTPEVVRVYIGSFWSHPLLIPDNRKLFEAEEQDLFKDIQSLPRNAALRKLNDLIKRARLAKVHAYIISSLKKEMPNVFGKESKKKELVNNLGEIYQKIEREHQISPGDFPSLRKMQELLQTQDFSKFQALKPKLLDTVDDMLANDIARLMVMVRQEESLMPSQVVKGGAFDGTMNGPFGHGYGEGAGEGIDDVEWVVGKDKPTYDEIFYTLSPVNGKITGANAKKEMVKSKLPNTVLGKIWKLADVDKDGLLDDEEFALANHLIKVKLEGHELPADLPPHLVPPSKRRHE"}, "B3": {"name": "EHD2 (endogenous, mouse tissue) (protein, UniProt Q8BH64 1-543)", "chain": "MFSWLKKGGARGQRPEAIRTVTSSLKELYRTKLLPLEEHYRFGSFHSPALEDADFDGKPMVLVAGQYSTGKTSFIQYLLEQEVPGSRVGPEPTTDCFVAVMHGETEGTVPGNALVVDPEKPFRKLNPFGNTFLNRFMCAQLPNQVLESISIIDTPGILSGAKQRVSRGYDFPAVLRWFAERVDLIILLFDAHKLEISDEFSEAIGALRGHEDKIRVVLNKADMVETQQLMRVYGALMWALGKVVGTPEVLRVYIGSFWSQPLLVPDNRRLFELEEQDLFRDIQGLPRHAALRKLNDLVKRARLVRVHAYIISYLKKEMPTVFGKENKKKQLILKLPVIFAKIQLEHHISPGDFPDCQKMQELLMAHDFTKFHSLKPKLLEALDDMLAQDIAKLMPLLRQEELESVEAGVQGGAFEGTRMGPFVERGPDEAIEDGEEGSEDDAEWVVTKDKSKYDEIFYNLAPADGKLSGSKAKTWMVGTKLPNSVLGRIWKLSDVDRDGMLDDEEFALASHLIEAKLEGHGLPTNLPRRLVPPSKRRQKGSAE"}, "B4": {"name": "EHD4 (endogenous, mouse tissue) (protein, UniProt Q9EQP2 1-541)", "chain": "MFSWMGRQAGGRERSGGMDAVQTVTGGLRSLYQRKVLPLEEAYRFHEFHSPALEDADFENKPMILLVGQYSTGKTTFIRYLLEQDFPGMRIGPEPTTDSFIAVMYGETEGSTPGNALVVDPKKPFRKLSRFGNAFLNRFMCSQLPNQVLKSISIIDSPGILSGEKQRISRGYDFCQVLQWFAERVDRIILLFDAHKLDISDEFSEAIKAFRGQDDKIRVVLNKADQVDTQQLMRVYGALMWSLGKVINTPEVLRVYIGSFWAQPLQNTDNRRLFEAEAQDLFRDIQSLPQKAAVRKLNDLIKRARLAKVHAYIISYLKKEMPNMFGKENKKRELIYRLPEIYVQLQREYQISAGDFPEVKAMQEQLENYDFTKFHSLKPKLIEAVDNMLTNKISSLMGLISQEEMNMPTQMVQGGAFDGTTEGPFNQGYGEGAKEGADEEEWVVAKDKPVYDELFYTLSPINGKISGVNAKKEMVTSKLPNSVLGKIWKLADCDCDGMLDEEEFALAKHLIKIKLDGYELPNSLPPHLVPPSHRKSLPKAD"}, "B5": {"name": "GFP-myotubularian-related protein 3 (MTMR3) (protein, UniProt Q13615 1-1198)", "chain": "MDEETRHSLECIQANQIFPRKQLIREDENLQVPFLELHGESTEFVGRAEDAIIALSNYRLHIKFKESLVNVPLQLIESVECRDIFQLHLTCKDCKVIRCQFSTFEQCQEWLKRLNNAIRPPAKIEDLFSFAYHAWCMEVYASEKEQHGDLCRPGEHVTSRFKNEVERMGFDMNNAWRISNINEKYKLCGSYPQELIVPAWITDKELESVSSFRSWKRIPAVIYRHQSNGAVIARCGQPEVSWWGWRNADDEHLVQSVAKACASDSRSSGSKLSTRNTSRDFPNGGDLSDVEFDSSLSNASGAESLAIQPQKLLILDARSYAAAVANRAKGGGCECPEYYPNCEVVFMGMANIHSIRRSFQSLRLLCTQMPDPGNWLSALESTKWLHHLSVLLKSALLVVHAVDQDQRPVLVHCSDGWDRTPQIVALAKLLLDPYYRTIEGFQVLVEMEWLDFGHKFADRCGHGENSDDLNERCPVFLQWLDCVHQLQRQFPCSFEFNEAFLVKLVQHTYSCLFGTFLCNNAKERGEKHTQERTCSVWSLLRAGNKAFKNLLYSSQSEAVLYPVCHVRNLMLWSAVYLPCPSPTTPVDDSCAPYPAPGTSPDDPPLSRLPKTRSYDNLTTACDNTVPLASRRCSDPSLNEKWQEHRRSLELSSLAGPGEDPLSADSLGKPTRVPGGAELSVAAGVAEGQMENILQEATKEESGVEEPAHRAGIEIQEGKEDPLLEKESRRKTPEASAIGLHQDPELGDAALRSHLDMSWPLFSQGISEQQSGLSVLLSSLQVPPRGEDSLEVPVEQFRIEEIAEGREEAVLPIPVDAKVGYGTSQSCSLLPSQVPFETRGPNVDSSTDMLVEDKVKSVSGPQGHHRSCLVNSGKDRLPQTMEPSPSETSLVERPQVGSVVHRTSLGSTLSLTRSPCALPLAECKEGLVCNGAPETENRASEQPPGLSTLQMYPTPNGHCANGEAGRSKDSLSRQLSAMSCSSAHLHSRNLHHKWLHSHSGRPSATSSPDQPSRSHLDDDGMSVYTDTIQQRLRQIESGHQQEVETLKKQVQELKSRLESQYLTSSLHFNGDFGDEVTSIPDSESNLDQNCLSRCSTEIFSEASWEQVDKQDTEMTRWLPDHLAAHCYACDSAFWLASRKHHCRNCGNVFCSSCCNQKVPVPSQQLFEPSRVCKSCYSSLHPTSSSIDLELDKPIAATSN"}}, "key": {"Myc-EHD1 (human), Q9H4M9 [1]": {"target": "T1, Myc-EHD1 (human), Q9H4M9", "T1 chain": "B2 chain", "assay": "co-IP; HEK 293T co-transfected with one Myc-tagged and one GFP-tagged construct (2.5 μg each); lysis in 1% Triton X-100, 150 mM NaCl, 50 mM Tris-HCl pH 7.6; lysates rocked overnight at 4°C; 1 mg lysate, IP with 3 μg anti-Myc (9E10), anti-GFP immunoblot", "details": "remark: other sources report otherwise"}, "Myc-EHD1 (human), Q9H4M9 [2]": {"target": "T1, Myc-EHD1 (human), Q9H4M9", "assay": "co-IP; HeLa cells, Myc- and GFP-tagged EHD proteins; data not shown", "details": "remark: other sources report otherwise"}, "Myc-EHD2 (human), Q9NZN4 [3]": {"target": "T2, Myc-EHD2 (human), Q9NZN4", "T2 chain": "B1 chain", "assay": "co-IP; HEK 293T co-transfected with one Myc-tagged and one GFP-tagged construct (2.5 μg each); lysis in 1% Triton X-100, 150 mM NaCl, 50 mM Tris-HCl pH 7.6; lysates rocked overnight at 4°C; 1 mg lysate, IP with 3 μg anti-Myc (9E10), anti-GFP immunoblot", "details": "remark: other sources report otherwise"}, "Myc-EHD2 (human), Q9NZN4 [4]": {"target": "T2, Myc-EHD2 (human), Q9NZN4", "assay": "co-IP; HeLa cells, Myc- and GFP-tagged EHD proteins; data not shown", "details": "remark: other sources report otherwise"}, "[5]": {"target": "T3, EHD1 (endogenous, mouse tissue) (mouse (endogenous in mouse tissue)) (UniProt Q9WVK4)", "T3 sequence": "B2 chain with P350S, V408A, V526I", "assay": "co-IP; mouse tissue extracts, endogenous proteins, IP with anti-human EHD1 antibodies; data not shown"}, "Myc-EHD1 (human)": {"target": "T4, Myc-EHD1 (human) (UniProt Q9H4M9)", "T4 sequence": "B2 chain", "assay": "co-IP; HEK 293T co-transfected with one Myc-tagged and one GFP-tagged construct (2.5 μg each); lysis in 1% Triton X-100, 150 mM NaCl, 50 mM Tris-HCl pH 7.6; lysates rocked overnight at 4°C; 1 mg lysate, IP with 3 μg anti-Myc (9E10), anti-GFP immunoblot"}}, "note": "Substitutions are numbered along the chain they refer to. These are yes or no findings as the source states them, for the method shown. In cells and extracts the contact can be indirect. Some entries that bind do so weakly or less than the wild type. For some of these results: Sequences can lack the tags named with a protein.", "data": [{"binder": "B1", "values": [{"measurement": "binding", "setting": "Myc-EHD1 (human), Q9H4M9 [1]", "value": "binds"}, {"measurement": "binding", "setting": "Myc-EHD1 (human), Q9H4M9 [2]", "value": "binds"}]}, {"binder": "B2", "values": [{"measurement": "binding", "setting": "Myc-EHD2 (human), Q9NZN4 [3]", "value": "binds"}, {"measurement": "binding", "setting": "Myc-EHD2 (human), Q9NZN4 [4]", "value": "binds"}]}, {"binder": "B3", "values": [{"measurement": "binding", "setting": "[5]", "value": "binds"}]}, {"binder": "B4", "values": [{"measurement": "binding", "setting": "[5]", "value": "binds"}]}, {"binder": "B5", "values": [{"measurement": "binding", "setting": "Myc-EHD1 (human)", "value": "no binding"}]}]}
